This note sets out measurements from the supplement of paper PMC4604168 (melanoma cell lines).

Test systems include G361; IPC-298; IST-MEL1; LB2518-MEL; LOXIMVI; MEL-HO; MZ2-MEL; MeWo; RPMI7951; RVH-421.
Common to all, as to test: cell count relative to DMSO control; melanoma cells; higher = more viable cells
Common to all, as to conditions: library dose: standard library concentration; 72 h

Each structure is given as a SMILES string. The list shows a part of the results. Repeats are few or missing, and single values can be far off.
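Also: cells treated in 1,536-well plates, then fixed and DAPI-stained, with nuclei counted from automated high-throughput microscope images.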

Take `O=c1[nH]nc(Sc2ncc([N+](=O)[O-])s2)n1-c1ccc2c(c1)OCCO2` + COCC[n+]1c2c(n(Cc3cnccn3)c1C)C(=O)c1ccccc1C2=O [YM155] (first compound 1 µM, partner dose 0.002 µM): the cell count in the assay on G361 amounted to 112%; in the assay with IPC-298, 74.9%; in the assay on IST-MEL1, 58.1%; in the assay with LB2518-MEL, 69%; in the assay on LOXIMVI, 77.1%; with MEL-HO it was 109%. Also, the cell count in the assay with MZ2-MEL came out at 41.9%; in the assay with MeWo it was 41.6%; in the assay on RPMI7951, 42.6%; with RVH-421 it was 105%.
In the case of `CC1(C)NC(=O)N(c2ccc([N+](=O)[O-])c(C(F)(F)F)c2)C1=O` [nilutamide] + COc1ccc2c(c1)CCC1C2CCC2(C)C(NCCCCCCN3C(=O)C=CC3=O)CCC12 [U73122] (first compound 5 µM, partner dose 2 µM), the cell count in the assay with G361 was 85%; in the assay with IPC-298, 98%; with IST-MEL1, 99.4%; with LB2518-MEL, 110%; with LOXIMVI, 77.2%; with MEL-HO, 108%. Also, the cell count was found to be 97.8% in the assay with MZ2-MEL, 62.5% in the assay with MeWo, 43.7% in the assay with RPMI7951 and 105% with RVH-421.
Regarding `COc1cc(Nc2ncc(F)c(Nc3ccc4c(n3)NC(=O)C(C)(C)O4)n2)cc(OC)c1OC` [Tamatinib] + COC(=O)c1sccc1S(=O)(=O)Nc1ccc(Nc2ccccc2)cc1OC [GSK0660] (first compound 2 µM, partner dose 5 µM), the cell count came out at 74.6% in the assay on G361; 72.5% in the assay on IPC-298; 99.2% in the assay with IST-MEL1; 72.4% in the assay on LB2518-MEL; 50.4% in the assay with LOXIMVI; 75.7% with MEL-HO. The cell count with MZ2-MEL was 76.8%; in the assay with MeWo, 80.9%; in the assay with RPMI7951 it was 59.1%; in the assay with RVH-421, 71.6%.
Turning to `O=C(O)c1ccc(-c2c[nH]c3ncc(-c4ccccc4)cc23)cc1C1CCCC1` + Oc1cc(-c2nc(-c3ccccc3)[nH]c2-c2ccncc2)ccc1Cl [L779450] (first compound 0.8 µM, partner dose 1 µM), the cell count in the assay with G361 came out at 48.5%; with IPC-298 it was 68.3%; in the assay on IST-MEL1, 83.8%; with LB2518-MEL, 86.5%; in the assay on LOXIMVI, 96.4%; with MEL-HO, 66.5%. For the same compound, the cell count in the assay with MZ2-MEL amounted to 93.2%; with MeWo it was 88.5%; in the assay with RPMI7951, 63%; in the assay with RVH-421, 54.3%.
With `O=c1[nH]nc(Sc2ncc([N+](=O)[O-])s2)n1-c1ccc2c(c1)OCCO2` + NC(=O)c1ccc(N(C(N)=O)c2c(F)cccc2F)nc1-c1ccc(F)cc1F [VX702] (first compound 1 µM, partner dose 2 µM), the cell count in the assay on G361 was found to be 88.3%; in the assay with IPC-298, 87.8%; in the assay on IST-MEL1, 91.4%; in the assay on LB2518-MEL, 82.4%; with LOXIMVI, 106%; with MEL-HO, 89.2%. For the same compound, the cell count worked out at 83% in the assay with MZ2-MEL, 93.4% in the assay on MeWo, 102% in the assay on RPMI7951 and 68.5% in the assay with RVH-421.
For `O=C(Nc1cccc(Cl)c1)Nc1ncc(CCNc2ncnc3ccsc23)s1` + Cn1cc(/C=C2\C(=O)Nc3cccnc32)c2ccccc21 [GW441756] (first compound 0.004 µM, partner dose 2 µM), the cell count in the assay with G361 amounted to 76.9%; with IPC-298, 66.8%; in the assay on IST-MEL1, 74.7%; in the assay with LB2518-MEL, 96.8%; in the assay on LOXIMVI, 88.2%; in the assay on MEL-HO it was 94.4%. Also, the cell count stood at 77.6% in the assay with MZ2-MEL, 94.5% with MeWo, 71.7% in the assay on RPMI7951 and 88.2% with RVH-421.
Regarding `O=c1[nH]nc(Sc2ncc([N+](=O)[O-])s2)n1-c1ccc2c(c1)OCCO2` + Cn1c(Nc2ccc(C(F)(F)F)cc2)nc2cc(Oc3ccnc(-c4ncc(C(F)(F)F)[nH]4)c3)ccc21 [CHIR265] (first compound 1 µM, partner dose 0.4 µM), the cell count in the assay with G361 was 34.9%; in the assay with IPC-298, 41.1%; in the assay with IST-MEL1, 73.1%; with LB2518-MEL it was 37%; in the assay with LOXIMVI, 97.6%; with MEL-HO, 62.2%. Moreover, the cell count in the assay on MZ2-MEL was determined as 70.1%; with MeWo it was 68.4%; in the assay on RPMI7951 it was 42.8%; in the assay on RVH-421, 60%.
Take `O=C(O)c1ccc(-c2c[nH]c3ncc(-c4ccccc4)cc23)cc1C1CCCC1` + COc1ccc(COc2ccc(Cc3cnc(N)nc3N)cc2OC)cc1 [GW2580] (first compound 0.8 µM, partner dose 5 µM): the cell count was 69.1% in the assay on G361; 78.4% in the assay on IPC-298; 98.7% in the assay with IST-MEL1; 105% in the assay on LB2518-MEL; 91.9% in the assay on LOXIMVI; 79.7% in the assay with MEL-HO. In addition, the cell count with MZ2-MEL is 79.4%; in the assay on MeWo, 72.6%; with RPMI7951 it was 89.9%; with RVH-421, 111%.
For `O=c1[nH]nc(Sc2ncc([N+](=O)[O-])s2)n1-c1ccc2c(c1)OCCO2` + CN1CCN(c2ccc3nc(-c4c(N)c5c(F)cccc5[nH]c4=O)[nH]c3c2)CC1 [Dovitinib] (first compound 1 µM, partner dose 0.5 µM), the cell count with G361 is 63.2%; in the assay on IPC-298, 66%; with IST-MEL1 it was 71.7%; in the assay with LB2518-MEL, 46%; in the assay with LOXIMVI, 110%; in the assay on MEL-HO, 68.4%. In addition, the cell count in the assay with MZ2-MEL came to 46.5%; with MeWo it was 40.8%; in the assay with RPMI7951, 55%; in the assay with RVH-421 it was 130%.
Turning to `Cn1cncc1[C@@](N)(c1ccc(Cl)cc1)c1ccc2c(c1)c(-c1cccc(Cl)c1)cc(=O)n2C` [tipifarnib] + COc1cc2c(Oc3ccc4[nH]c(C)cc4c3F)ncnc2cc1OCCCN1CCCC1 [cediranib] (first compound 0.05 µM, partner dose 2 µM), the cell count with G361 amounted to 77.2%; with IPC-298 it was 102%; with IST-MEL1 it was 71%; in the assay with LB2518-MEL it was 84%; in the assay with LOXIMVI it was 58.2%; in the assay with MEL-HO, 91.3%. Moreover, the cell count in the assay on MZ2-MEL is 98%; in the assay on MeWo, 72.7%; with RPMI7951, 60.2%; in the assay with RVH-421, 109%.
With `O=c1[nH]nc(Sc2ncc([N+](=O)[O-])s2)n1-c1ccc2c(c1)OCCO2` + C[C@]1(c2nc3c(C(N)=O)cccc3[nH]2)CCCN1 [Veliparib] (first compound 1 µM, partner dose 7 µM), the cell count with G361 is 79.9%; with IPC-298 it was 107%; in the assay with IST-MEL1 it was 96.3%; in the assay on LB2518-MEL it was 80.1%; with LOXIMVI, 80.7%; in the assay on MEL-HO, 105%. Further, the cell count with MZ2-MEL came out at 101%; with MeWo, 93.4%; in the assay on RPMI7951, 77.5%; in the assay with RVH-421 it was 101%.
Turning to `CC1(C)NC(=O)N(c2ccc([N+](=O)[O-])c(C(F)(F)F)c2)C1=O` [nilutamide] + CCc1ccc(CCOc2ccc(CC3SC(=O)NC3=O)cc2)nc1 [pioglitazone] (first compound 5 µM, partner dose 10 µM), the cell count in the assay with G361 was found to be 83.9%; in the assay on IPC-298, 78.8%; in the assay with IST-MEL1, 91.3%; in the assay on LB2518-MEL, 71.9%; in the assay with LOXIMVI, 101%; in the assay on MEL-HO it was 83.1%. Moreover, the cell count in the assay on MZ2-MEL came out at 84.3%; in the assay on MeWo, 86.2%; in the assay on RPMI7951, 108%; with RVH-421 it was 113%.
